# Experimental data from the supplement of paper PMC3334620.
# Whole data set: some 33,000 sequences, median “E-score (-0.5 to 0.5)” near -0.043, cut for the highest 2% near 0.37. This is one part of the list.
# Biological target: T1, Upc2 (UniProt Q12151)
# T1 sequence: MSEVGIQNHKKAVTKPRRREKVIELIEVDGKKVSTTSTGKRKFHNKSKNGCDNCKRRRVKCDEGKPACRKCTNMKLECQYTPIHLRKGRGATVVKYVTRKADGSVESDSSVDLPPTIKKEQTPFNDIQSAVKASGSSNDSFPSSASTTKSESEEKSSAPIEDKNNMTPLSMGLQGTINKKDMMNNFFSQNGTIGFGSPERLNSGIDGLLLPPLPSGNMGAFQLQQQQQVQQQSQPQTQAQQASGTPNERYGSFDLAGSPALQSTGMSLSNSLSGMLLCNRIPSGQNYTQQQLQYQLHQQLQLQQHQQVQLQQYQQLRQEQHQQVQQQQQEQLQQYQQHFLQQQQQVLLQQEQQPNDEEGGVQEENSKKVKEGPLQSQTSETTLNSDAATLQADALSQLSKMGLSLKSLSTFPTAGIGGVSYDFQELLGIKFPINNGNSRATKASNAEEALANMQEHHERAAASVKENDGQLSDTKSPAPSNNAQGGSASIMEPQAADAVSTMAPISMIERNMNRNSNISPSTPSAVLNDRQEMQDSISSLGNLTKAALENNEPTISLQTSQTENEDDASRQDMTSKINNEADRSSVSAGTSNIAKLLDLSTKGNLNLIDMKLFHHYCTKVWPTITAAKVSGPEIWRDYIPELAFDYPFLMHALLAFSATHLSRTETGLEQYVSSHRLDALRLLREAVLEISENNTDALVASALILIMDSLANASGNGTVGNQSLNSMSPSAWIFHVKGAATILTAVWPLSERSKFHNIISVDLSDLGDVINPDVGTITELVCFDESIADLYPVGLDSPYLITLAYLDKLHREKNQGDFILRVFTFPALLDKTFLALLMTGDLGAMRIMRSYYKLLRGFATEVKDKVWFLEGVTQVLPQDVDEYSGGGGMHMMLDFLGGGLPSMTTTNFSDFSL
# Assay: PBM E-score (8-mer binding enrichment) (E-score (-0.5 to 0.5)); higher = stronger / more preferred TF binding; most listed sequences are background and not binding sites
# Conditions: protein concentration: 200 nM; construct: GST-full length
# Procedure: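 Universal 'all 10-mer' protein binding microarrays (Agilent AMADID 015681) probed with GST-tagged S. cerevisiae TFs (full-length or DBD) made by in vitro transcription/translation (PURExpress), about 100-200 nM. Bound TF was detected with fluorescent anti-GST. Each ungapped 8-mer (which stands for itself and its reverse complement) is scored by the PBM enrichment score (E-score), a modified Wilcoxon-Mann-Whitney statistic from -0.5 to +0.5, computed with the Universal PBM Analysis Suite. Scale: above 0.35 generally sequence-specific binding.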
row,Sequence,PBM E-score
1,CCGACGTC,0.0845
2,ACTCCTCT,-0.183
3,CTATTCTC,-0.213
4,CTGGGCAC,0.00195
5,CATACTAA,0.0441
6,ACTGATAA,-0.12
7,CGCAGCAG,-0.0376
8,GTGCCGAA,-0.0249
9,AGGCAGGA,-0.138
10,AAGAACAG,-0.0861
11,AGTTGTAC,0.153
12,CGAGAGTC,0.115
13,CGGCTTAC,0.0384
14,AAGGAAAT,-0.0337
15,ATCTGTCC,-0.26
16,AGGAGGGG,-0.2
17,AACTCGCA,0.159
18,GCACATTA,-0.028
19,AAATTGAA,-0.157
20,CTCACGAA,0.0214
21,CCTAGCCA,-0.139
22,ATATGGGA,-0.17

row,Sequence,PBM E-score
1,AAGAGAAC,0.21
2,CAAAGAAG,0.0356
3,CCATGGAG,-0.327
4,GACAGCAC,0.0344
5,GACAGAAA,0.133
6,AGCGGGTC,-0.0751
7,TATTATGA,0.0109
8,GCCTGCCC,-0.234
9,AACCGCGG,0.0911
10,CTGAGTTA,-0.176
11,CGGGAGGC,-0.232
12,ATTGGATC,-0.187
13,TGGTACAA,-0.195
14,ACTAATCC,-0.0565
15,CACTTTGA,-0.16
16,CGAATTTA,0.165
17,GCAATGTA,0.15
18,ACCCCTGC,-0.412
19,TAGGCATA,-0.146
20,GCATTGGC,-0.243
21,AAGCGCCT,-0.223
22,GAGGGCCC,-0.156

row,Sequence,PBM E-score
1,CATGTTAG,-0.12
2,ATGATTTG,-0.0654
3,AGCCGGCA,-0.134
4,AGAGCGAT,-0.0429
5,ATCTCAGG,-0.231
6,AGCCAACA,-0.098
7,ACCAAAGC,-0.0372
8,AGGGTGGG,0.0134
9,ACGCGTGC,0.186
10,ATCACGTA,0.247
11,GCCACACC,-0.203
12,ATTTGTAG,-0.154
13,GCACGTCA,-0.113
14,CCTACAAC,-0.0791
15,CCATACAC,0.00869
16,AGCGCGAG,0.0101
17,AAGCCACG,0.0648
18,AAATTGGC,-0.0996
19,AACGGCTG,0.143
20,ATTCGCAG,-0.0475
21,ACAAGGAG,-0.0353
22,AAGTTAGA,-0.113

row,Sequence,PBM E-score
1,ACAAGATG,-0.154
2,CGAGATAG,0.122
3,TAATCCGA,0.0736
4,CTTAAAAG,-0.0494
5,AGGCTCAT,-0.141
6,ACCAGAAA,0.0774
7,CCCTCCAA,-0.0585
8,ACTATCTG,-0.112
9,AAGTGCAT,-0.219
10,GCGTTAAC,0.253
11,CTTTATGC,0.0479
12,ACATCGAG,0.029
13,TTGTAAAA,0.0751
14,ACAGAAAT,0.0545
15,TCGAAGAA,-0.105
16,ACCTGTAA,0.228
17,CCCAGTAA,-0.108
18,GCCCGTGA,-0.0912
19,GCGAGCCC,0.122
20,AATAGTCG,0.126
